Measurements as given in article PMC12136788.
The list shows a part of the results.

B1: ENSG00000070961:be:win_901|CDS|ENSG00000070961|bound_else_gene|NA|bound_elsewhere_windowed (ssRNA)
RNA: GGGAGUUCUACAGUCCGACGAUCAAAGAUGAGAAGAAAAAGGAAAAGAAAAAUAAGAAACAAGAUGGAGCUAUUGAGAAUCGCAACAAAGCAAAAGCCCAGGAUGGUGCAGCCAUGGAAAUGCAGCCAUUGAAGAGUGAAGAACAACAGAGGAUUGAGCAUCA
B2: ENSG00000141367:stop:overlap|stop_codon|ENSG00000141367|stop_codon|NA|stop_codon (ssRNA)
RNA: GGGAGUUCUACAGUCCGACGAUCAAGUAAUUGCACUGAAAGCAAAAUCGUGUGGUGGGAGCUAUGCAGCUAUAUUCUGUAGAUAGGAAAGUGUCUCAGCCCAUUGAAGGACAUGCAGCUAGCUUUGCACAGUUUAAGAUGGAACAACAGAGGAUUGAGCAUCA
B3: chr1:173734013:173734119:+|CDS|ENSG00000076321|unk|FALSE|unique (ssRNA)
RNA: GGGAGUUCUACAGUCCGACGAUCCAUUGACGAGAGGGCUAUGGAAUUACUGAUUGACUUUGCGUAUACCUCCCAGAUAACAGUAGAAGAGGGCAAUGUUCAGACUCUUCUGCCAGCUGCUUGCCUCCUCCAGCUGGCAGAAAUCAACAGAGGAUUGAGCAUCA
B4: chr5:141515046:141515147:-|3pUTR|ENSG00000131504|msi1_unk|total|mutant (ssRNA)
RNA: GGGAGUUCUACAGUCCGACGAUCAAAAAGAGAGAGAGAGAGAGGUGUGAGGGACAAAAUGCAAACCUAUUUCCCUUGCCUCACCGGCUUCUGGGAUGUCAUCACCUCCAGUUUGUUGGUUUUGUUUCCAACUGUUAAUAAAGCCAACAGAGGAUUGAGCAUCA
B5: chr1:56708525:56708626:+|3pUTR|ENSG00000162409|unk|FALSE|unique (ssRNA)
RNA: GGGAGUUCUACAGUCCGACGAUCACCUUUCUCAAAUUCUUUUUGCCUCUAUUUAUUUUUGCAUUUCACCAACAGUGAUAAAAUAGUUAAAUGAAACAAAGCAAAGUAUCAACAGUCCCUUAAAUGAGAAUCCUUAUCUUUGAUCAACAGAGGAUUGAGCAUCA
B6: chr1:152033651:152033752:-|CDS|ENSG00000163191|unk|FALSE|unique (ssRNA)
RNA: GGGAGUUCUACAGUCCGACGAUCGGAUGGUUAUAACUACACUCUCUCCAAGACAGAGUUCCUAAGCUUCAUGAAUACAGAACUAGCUGCCUUCACAAAGGUACUGGUCCCUGUCUCCCCCACUUCCCCAAACUACCCACAACACAACAGAGGAUUGAGCAUCA
B7: ENSG00000070961:be:win_4201|3pUTR|ENSG00000070961|bound_else_gene|NA|bound_elsewhere_windowed (ssRNA)
RNA: GGGAGUUCUACAGUCCGACGAUCACUGCUGUAUUUUCAGGAAAAAAAAAAAAAGGGGUGUUUCUAUUGAAACUGUACUAAAUUUUUGCCUACAAUUUACCUUGUUAAAUAUUGUAGAUAAAUUGCUAAUACUAAUAGCCAAAUCAACAGAGGAUUGAGCAUCA
B8: ENSG00000107863:be:win_251|CDS|ENSG00000107863|bound_else_gene|NA|bound_elsewhere_windowed (ssRNA)
RNA: GGGAGUUCUACAGUCCGACGAUCAAAAUGGAAACAGAGGAGGAAAACAAAGAAACCGCUUGGAACCAAUGGAUACCAUAUUUGUUAAGCAAGUUAAAGAAGGAGGACCUGCUUUUGAAGCUGGAUUAUGUACAGGUGACCGAACAACAGAGGAUUGAGCAUCA
B9: ENSG00000198589:be:win_4901|CDS|ENSG00000198589|bound_else_gene|NA|bound_elsewhere_windowed (ssRNA)
RNA: GGGAGUUCUACAGUCCGACGAUCCAGAUGCAAUCAGCGAGGUGCUAUCUACUCUUUCUUUAGAAGUCAAUAAGUCUCCGGAAACCAAAAAUGAUAGAGGAAAUGACUUGGACACUAAGGCUACACCGUCAGUUUCAGUUUCAACAACAGAGGAUUGAGCAUCA
B10: chr6:75950561:75951094:-|CDS|ENSG00000112706|control|control|control (ssRNA)
RNA: GGGAGUUCUACAGUCCGACGAUCAGCUUUACAGUAUAUCACCACUAGUUCUAUGACCAUUGCCCCCAAGGGCCGAGAGCUGGUAGUGUUCUUCAGUCUGCGUGUUGCUAACAUGGCCUUCUCCAACGACCUGUUCAACAAGAGCAACAGAGGAUUGAGCAUCA
B11: chr15:52550718:52550819:-|3pUTR|ENSG00000128989|msi1|total|mutant (ssRNA)
RNA: GGGAGUUCUACAGUCCGACGAUCUUUAUAUAAACUUUUUAAAUGCCGAAACUUUUUACUUCCACACUCAGUUUUGGAGACCCCCGAAUAAAAGGCUUCAAUACUCUGCAUUCCAUGCCCUCUGCCACCUGCUUUUUUUUCCCCCAACAGAGGAUUGAGCAUCA
B12: chr16:18805221:18805325:-|3pUTR|ENSG00000157106|unk|total|mutant (ssRNA)
RNA: GGGAGUUCUACAGUCCGACGAUCAAGAAUUCUAUGUUCUGAAAUGCACACUUUCCGAAUGUUUUUCUUUGAAAACAGGCUAACCGUUUUUUCUUUUUUUGACAAAGUUUCAGCUCCUCUUUAAAGUUAUUGUGUCAUUUUUCUCAACAGAGGAUUGAGCAUCA
B13: chr21:32314052:32314153:-|3pUTR|ENSG00000142207|msi1|total|mutant (ssRNA)
RNA: GGGAGUUCUACAGUCCGACGAUCCAUCUCAAAAAAAUAAAAAAAUAAAGUUUGUUUUUCUAUAAAAAGUCAUAACAAAGUAUCCGUAUGACUUUUUGAAUAAGUUAAUUUCUGCCAGUGUUUAAUUAUUUUAUUAAAGAAAAGCAACAGAGGAUUGAGCAUCA
B14: chr7:6162096:6162197:-|3pUTR|ENSG00000008256|msi1|FALSE|unique (ssRNA)
RNA: GGGAGUUCUACAGUCCGACGAUCGUCACAGAACAUUUUGGGGCAGUUUAAUGUGGUACCAAACUGAAAAUAGGAGCUAUUUAUAGAUGGAGCAGCACUUAGUGCUUCAUAGAAAGCAAUGCCUAUUUUUAAAGUUACAAACGCCAACAGAGGAUUGAGCAUCA
B15: ENSG00000213799:stop:overlap|stop_codon|ENSG00000213799|stop_codon|NA|stop_codon (ssRNA)
RNA: GGGAGUUCUACAGUCCGACGAUCUUUUUAAUCGAAAAGCAAAACUUGCACGUCAUCAUAGAAUUCAUACUGGAAAGAAACAUUAGAAAUAUGAAGAAUGUGACAAAGUUUACAGUUGUAAAUCAAGUCUUGAAAGACAGGAGACAACAGAGGAUUGAGCAUCA
B16: chrX:141908562:141908663:+|CDS|ENSG00000155495|unk|total|mutant (ssRNA)
RNA: GGGAGUUCUACAGUCCGACGAUCUCCUCGUUACGAAUUCCUGUGGGGUCCAAGAGCUCAUUCAGAAGUCAUUAAGAGGAAAGCCGCCGAGUUUUUGGCCAUGCUAAAGAAUACCGUCCCUAUUACCUUUCCAUCCUCUUACAACAACAGAGGAUUGAGCAUCA
B17: chr16:70160055:70160156:+|3pUTR|ENSG00000090857|msi1|FALSE|unique (ssRNA)
RNA: GGGAGUUCUACAGUCCGACGAUCUUGUGCUCACCACGAAGGAUGGUCUCUGCCUUCUCUUGUCGGUGUAUGCCAUCUGAACCUAGGAACACAAAGUAUAUUGGCCUCAAACGGAGACCCAGGGUUGCCAGUUUUCCGUGGGCCCAACAGAGGAUUGAGCAUCA
B18: ENSG00000158859:stop:overlap|stop_codon|ENSG00000158859|stop_codon|NA|stop_codon (ssRNA)
RNA: GGGAGUUCUACAGUCCGACGAUCUGAGGCCCCAGUCAGCACCGCAGGCCAUGCACUGCACAAUUCUAAGAAGCGCCACUACAUAGACUAUGAUGCAAAUGAUGUUCCUGGAGUUGUGUGACAUGGUGCCUUGCCCCAGCCACACAACAGAGGAUUGAGCAUCA
B19: chr1:18907414:18907603:-|3pUTR|ENSG00000169991|msi1|FALSE|unique (ssRNA)
RNA: GGGAGUUCUACAGUCCGACGAUCCCUUGAUUUCCCUGAUAACUUGAUGUUCUUCCCUCCCUCGCCAGCCAACAAUAGAGGCUUAGAGAUCUGUAAUUUCUCUGUGAGAAAGUCUGAAGGGGCCAGGCCUGGUCUCUGCUCCCUCAACAGAGGAUUGAGCAUCA
B20: chr1:54216159:54216271:+|CDS|ENSG00000116221|unk|FALSE|unique (ssRNA)
RNA: GGGAGUUCUACAGUCCGACGAUCCUUGGAGCAGCCCGUGGUGGUGCAGAGCGUGGGCACGGAUGGACGUGUCUUCCAUUUCCUAGUGUUUCAACUGAAUACCACAGACCUGGACUGUAACGAGGGUGUCAAGAAUUUGGCCUGCAACAGAGGAUUGAGCAUCA
B21: ENSG00000070961:be:win_751|CDS|ENSG00000070961|bound_else_gene|NA|bound_elsewhere_windowed (ssRNA)
RNA: GGGAGUUCUACAGUCCGACGAUCAAAAAGUCUUUAGAUAAGGAUCCCUUACUUCUAUCAGGUACUCAUGUAAUGGAAGGCUCUGGAAGAAUGGUAGUUACAGCUGUAGGUGUAAAUUCUCAAACUGGAAUUAUCUUUACCUUACAACAGAGGAUUGAGCAUCA
B22: ENSG00000070961:be:win_4451|3pUTR|ENSG00000070961|bound_else_gene|NA|bound_elsewhere_windowed (ssRNA)
RNA: GGGAGUUCUACAGUCCGACGAUCGUUUUGAAGCAACUGUUUAAUUUUUAAAAUUUUUGAAAACUUGCUAAUAACCUUUUGUUCAGAAUUUAGUAGAUUGUUUAAUGCAGGACAUCAACUACAUAAUGAAAGAUGCUUGAAAUGCAACAGAGGAUUGAGCAUCA

target: MSI1 full-length (mouse, UniProt Q61474 1-362); experiment: nsRBNS (natural sequence RNA bind-n-seq); RBNS binding buffer (assumed for nsRBNS): 25 mM Tris pH 7.5, 150 mM KCl, 3 mM MgCl2, 0.01% Triton X-100, 500 ug/ml BSA, 20 U/ml SUPERase-In, 4 C; UNK is unkempt and MSI1 is Musashi-1; names of the RNAs are library labels; protein concentration not given here; high values mean tight binding
UniProt Q61474, sequence (Q61474 whole entry): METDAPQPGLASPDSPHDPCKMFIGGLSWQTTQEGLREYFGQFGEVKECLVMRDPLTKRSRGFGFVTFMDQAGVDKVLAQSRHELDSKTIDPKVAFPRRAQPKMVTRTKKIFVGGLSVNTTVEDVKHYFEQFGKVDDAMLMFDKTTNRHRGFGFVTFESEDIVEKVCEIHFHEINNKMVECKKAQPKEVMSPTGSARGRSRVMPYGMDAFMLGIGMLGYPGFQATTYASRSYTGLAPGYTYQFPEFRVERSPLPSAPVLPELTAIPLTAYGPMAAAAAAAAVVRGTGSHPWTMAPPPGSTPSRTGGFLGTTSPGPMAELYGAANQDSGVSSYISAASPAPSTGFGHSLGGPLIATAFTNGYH

Binder	binding signal [enrichment R]
B1	0.774
B2	4.84
B3	1.23
B4	0.471
B5	2.24
B6	0.797
B7	0.987
B8	0.485
B9	0.481
B10	0.499
B11	0.699
B12	0.464
B13	1.43
B14	1.08
B15	0.725
B16	0.404
B17	0.303
B18	0.433
B19	0.911
B20	0.488
B21	0.769
B22	0.619
